Test results from PubChem BioAssay AID686979 (National Center for Advancing Translational Sciences (NCATS), 2013).
Where “and” joins values, the source holds several entries; their conditions need not be identical. Identical values can stand only once. Hit rate of the full screen: of about 420,000 compounds, about 50,000 (12%) were called active. Inconclusive results, whose numbers are uncertain, are shown with a selection of clear calls. The call rests on the fitted dose curve; in most records, active means well fitted inhibition curve with a large enough effect; inconclusive means small, poorly fitted or top-dose-only effect; inactive means flat fitted curve, though single readings scatter. A potency beside an inconclusive call is a rough fit, not a confirmed value.

assay: qHTS for Inhibitors of human tyrosyl-DNA phosphodiesterase 1 (TDP1): qHTS in cells in presence of CPT; conditions: chicken DT40 Tdp1-/-;hTDP1 cells + 20 nM CPT, ATP luminescence, 48 h; activity change, negative = growth inhibition: at 46.2 µM (top of the series); further: nearly all actives have a fitted effect of over 55% in size
In short: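 Chicken DT40 Tdp1-/- cells stably complemented with human TDP1 were seeded at 400 cells/well in medium containing 20 nM camptothecin, exposed to pin-transferred compounds, and grown at 37 °C for at least 48 hr. Viability was read as ATP luminescence.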
On the % scale 0 is the no-effect control and ±100 the full control effect; potency means the concentration at half of the fitted maximal effect; tags describe the fitted curve by direction and shape.

Structure (SMILES)	activity change, negative = growth inhibition	Potency
CN1C(=O)c2cccc(NCCCN3C(=O)c4ccccc4C3=O)c2C1=O	inconclusive: -31.6% [inhibitor]	
Cc1cccc(NC(=O)CSCC(=O)Nc2cccc3ncccc23)c1	inactive: 5.49%	
Clc1ccc[n+](CCCCC[n+]2cccc(Cl)c2)c1		inconclusive: 17.8 µM [inhibitor, single point]
CCOC(=O)c1ccc(NCc2nc3ccccc3[nH]2)cc1		active: 16.4 µM
CCCc1cc(=O)n2[nH]c(SCc3ccc(Cl)cc3)nc2n1		inconclusive: 32.6 µM [inhibitor, single point]
CCOc1ccc(-c2cc(C(=O)Nc3ccc4c(c3)OCCO4)c3ccccc3n2)cc1		inconclusive: 29.1 µM [inhibitor, single point]
COc1ccc(C2=Nn3c(nnc3-c3ccccn3)SC2)cc1OC	inactive: -22.6%	
O=C1C(=O)N(C2CCN(C(=O)c3ccccc3F)CC2)CCN1Cc1ccc(F)cc1	inactive: 10.1%	
OC(c1ccc2c(c1)OCO2)c1ncc(-c2ccccc2)[nH]1 (centres undefined)	inactive: -7.84%	
Cn1ccnc1Sc1ccc(/C=N/NC(=O)c2ccccc2O)cc1[N+](=O)[O-]	inactive: -22.7%	
C/C(=C/c1ccccc1)C(=O)N1CCN(c2ccccc2F)CC1	inactive: -10.1%	
CN(C)c1ccc(-c2ccnc3c2CC(C)(C(=O)Nc2ccc(Cl)c(C(F)(F)F)c2)O3)cc1 (centres undefined)		inconclusive: 16.4 µM [inhibitor, partial curve, poor fit]
Cc1cc(C(=O)NC2CCCCCC2)c2ccccc2n1	inactive: -13.8%	
N#C/C(=C\c1cccnc1)c1ccc([N+](=O)[O-])cc1		inconclusive: 29.1 µM [inhibitor, single point]
COc1cc(/C=N/n2c(C3CCCCC3)n[nH]c2=S)ccc1O	inactive: -6.35%	
Cc1ccc(-c2noc(CSc3nnc(C)n3-c3ccc(C)c(C)c3)n2)cc1		inconclusive: 29.1 µM [inhibitor, single point]
CCCc1nc2c(C)cc(Br)cn2c1Cc1ccccc1C(F)(F)F		active: 23.1 µM
Cc1nnc2ccc(-c3ccc(NS(=O)(=O)c4ccc(F)cc4F)cc3)nn12	inactive: -11.1%	
COc1ccc(/C=C(\C#N)c2nc3ccccc3c(=O)[nH]2)cc1OC		inconclusive: 29.1 µM [inhibitor, single point]
O=C(OCC#CCSc1nnc(-c2ccc(Br)cc2)o1)c1cccs1		inconclusive: 32.6 µM [inhibitor, single point]
Cc1ccc(NC(=O)CN2C(=O)NC3(CCc4ccccc43)C2=O)cc1Cl (centres undefined)	inactive: -24.9%	
O=S(=O)(c1ccc2ccccc2c1)N(CC(O)CN1CCOCC1)c1ccccc1 (centres undefined)	inactive: -28.7%	
CC(C)(C)OC(=O)N1CCN(C(=O)c2ncn3c2c(=O)[nH]c2ccccc23)CC1	inactive: 12.5%	
COc1ccccc1CNC(=O)COCc1cc(-c2ccc3c(c2)OCO3)on1		inconclusive: 14.6 µM [inhibitor, partial curve]
O=C(N/N=C\c1ccncc1)c1ccc(Br)s1	inactive: -20.5%	

Structure (SMILES)	activity change, negative = growth inhibition	Potency
CCOC(=O)CCc1c(C)nc2cc(-c3ccc(Cl)cc3)[nH]n2c1=O	inactive: -28.7%	
CCOc1ccc(S(=O)(=O)Nc2ccc3oc4c(c3c2)CC(C)CC4)cc1 (centres undefined)		inconclusive: 32.6 µM [inhibitor, single point]
CCN1CCN(CNC(=O)c2cnccn2)CC1		active: 18.4 µM
CCOc1ccc(-n2c(O)c(/C=N/NC(=O)C3COc4ccccc4O3)c3ccccc3c2=O)cc1 (centres undefined)	inactive: -18.3%	
O=C(COC(=O)Cc1n[nH]c(=O)c2ccccc12)Nc1c(Br)cc([N+](=O)[O-])cc1Br	inactive: -20.5%	
COc1ccc(NS(=O)(=O)c2cccc3ccccc23)cc1		inconclusive: 14.6 µM [inhibitor, single point]
COC(=O)c1ccc(C)c(NC(=O)COC(=O)C2CC3CCCC(C2)C3=O)c1 (centres undefined)	inactive: -3.69%	
O=C(Nc1ccc(C(=O)OC[C@@H]2CCCN3CCCC[C@H]23)cc1)c1cccc(Br)c1		inconclusive: 20.6 µM [inhibitor, single point]
O=C(Nc1ccccc1Cl)c1ccccc1CC(O)(c1ccccc1)c1ccccc1		inconclusive: 18.4 µM [inhibitor, single point]
Cc1cc(Cl)ccc1Nc1nc(NCc2ccco2)nc2nccnc12		inconclusive: 35.5 µM [inhibitor, single point]
COc1ccc(CNC(=O)C2CCN(C(=O)Cc3ccccc3)CC2)cc1	inactive: 1.21%	
O=C(Nc1ccc(N2CCCC2)cc1)c1ccc2ccccc2c1	inactive: 0.547%	
CC(C)CN(CC(C)C)CC(O)Cn1cc(/C=C/C(=O)c2ccccc2)c2ccccc21 (centres undefined)		active: 4.11 µM
Cc1nnc(SCc2nc3ccccc3s2)n1-c1ccccc1	inconclusive: -31.4% [inhibitor]	
Cc1nnsc1C(=O)NNc1ccc(C(C)(C)C)cc1		inconclusive: 23.1 µM [inhibitor, single point]
CC(=O)c1cccc(NC(=O)c2onc(C)c2Cl)c1	inactive: 13.6%	
COc1ccc(CN2C(=O)/C(=C/c3ccncc3)SC2=S)cc1		active: 23.1 µM
COc1ccc(CN(C)CC(O)COc2ccc(-c3ccccc3)cc2)cc1OC (centres undefined)		active: 18.4 µM
COc1cc(NS(=O)(=O)c2c(C)nc3sc(C)c(C)n3c2=O)cc(OC)c1		inconclusive: 2.91 µM [inhibitor, full curve, poor fit]
Cc1ccc(C(=O)Nc2cccc(S(=O)(=O)N3CCOCC3)c2)cc1[N+](=O)[O-]		active: 11.6 µM
O=C(c1ccc(F)cc1)c1c[nH]c(C(=O)NCc2cccnc2)c1		inconclusive: 10.3 µM [inhibitor, partial curve, poor fit]
Cc1cc(SCC(=O)c2ccccc2)nc(SCC(=O)c2ccccc2)n1		inconclusive: 29.1 µM [inhibitor, single point]
CCOc1ccc(/C=C(/NC(=O)c2ccc(Cl)cc2)C(=O)O)cc1OCC	inactive: -3.26%	
CCc1ccc(NC(=O)C2=CC(c3cccs3)=NS(=O)(=O)N2C)cc1		inconclusive: 18.4 µM [inhibitor, single point] and inconclusive: 29.1 µM [inhibitor, single point]
